Experimental data reported in PubChem BioAssay AID1347434 (National Center for Advancing Translational Sciences (NCATS), 2020).
Hit rate of the full screen: of about 1,200 compounds, about 30 (2%) were called active. Roughly 23% stayed inconclusive and do not appear here. The call rests on the fitted dose curve; in most records, active means well fitted inhibition curve with a large enough effect; inconclusive means small, poorly fitted or top-dose-only effect; inactive means flat fitted curve, though single readings scatter. Some of the results follow.

Each compound was assayed against Single-stranded DNA cytosine deaminase (Homo sapiens) (UniProt Q9GZX7) (assay: Confirmatory qHTS assay for inhibitors of Activation Induced Cytidine Deaminase (AID): AID signals). Details: recombinant AID, FRET deamination/UDG coupled fluorescence, 4 h; series mostly up to 115 µM; activity, negative = inhibition: at the top concentration.
Outline: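 Read 1 (AID) was measured at 540 ex/590 em after a 30 min NaOH step. The reaction was AID (1 uM, 4/3x stock) with UDG, compound at final 7.32 nM - 114 uM for 10 min, then DJC20/DJC23 substrate for 4 hr at room temperature. A UDG read at 560/665 serves as counterscreen.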
On the % scale 0 is the no-effect control and ±100 the full control effect; potency means the concentration at half of the fitted maximal effect.

UniProt Q9GZX7, sequence (Q9GZX7 whole entry, looked up): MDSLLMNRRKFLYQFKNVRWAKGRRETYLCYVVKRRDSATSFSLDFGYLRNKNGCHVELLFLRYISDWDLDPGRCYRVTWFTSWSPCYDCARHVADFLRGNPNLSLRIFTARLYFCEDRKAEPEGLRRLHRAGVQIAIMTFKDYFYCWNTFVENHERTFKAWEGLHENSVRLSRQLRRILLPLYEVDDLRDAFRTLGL

SMILES	activity, negative = inhibition	Potency
COc1c(C)cccc1C(=O)Nc1cccc2ccc(C)nc12	inactive: -6.4%	–
COc1ccc(S(=O)(=O)c2cnc3ccc(Cl)cc3c2N2CCCCC2C)cc1 (stereo not given)	inactive: -7.01%	–
CC(=O)c1cccc(NC(=O)c2oc3c(c2C)-c2nn(Cc4ccc(Cl)cc4)cc2CC3)c1	inactive: 25.6%	–
COc1cc(Nc2nc(SCC(=O)c3ccc(Br)cc3)nc3ccccc23)cc(OC)c1	inactive: -11.3%	–
O=C1C(SCCO)=C(SCCO)C(=O)c2ccccc21	–	active: 14.1 µM
CCCc1cc(=O)n2[nH]c(NC(=O)c3ccc(C(C)(C)C)cc3)nc2n1	inactive: -15.5%	–
COc1ccc(C(=O)Nc2nc3nc(C)c(Cc4ccccc4)c(=O)n3[nH]2)cc1OC	inactive: -10.3%	–
COC(=O)c1ccc(CSc2nnc3ccc4ccccc4n23)cc1	inactive: -11%	–
Cc1ccc2cccc(NC(=O)c3ccc(OC(C)C)cc3)c2n1	inactive: -17.6%	–
CSc1nc(Nc2ccc(F)cc2)cc(-c2ccccc2)n1	inactive: -5.19%	–
Cc1ccc(CNC(=O)Nc2cc(C(=O)NCc3ccc(C(C)C)cc3)ccc2N2CCCC2)cc1	inactive: 5.42%	–
CCC(=O)Oc1c(Sc2ccc(Cl)cc2)c(C)nn1-c1ccccc1	inactive: 5.67%	–
CCc1ccc(CN2CCc3nc(Nc4ccccc4)ncc3C2)cc1	inactive: -9.78%	–
CCc1ccccc1Nc1nn2c(=O)c3ccc(C(=O)NC(C)c4ccccc4)cc3nc2s1 (stereo not given)	inactive: -7.25%	–
CCCNC(=O)c1cnn2c(C)c(Cc3c(C)cc(C)cc3C)c(C)nc12	inactive: -18.3%	–
CC(=O)NCCNc1nc2c(S(=O)(=O)c3ccc(C)c(C)c3)nnn2c2ccc(Cl)cc12	inactive: -21.6%	–
Cc1ccc(C(C)C)c(OCC(=O)N2CCC(c3nc4ccccc4o3)CC2)c1	inactive: -23.9%	–
Cc1nn2c(=O)cc(COC(=O)c3ccc(NC(=O)C4CCCCC4)cc3)nc2s1	inactive: -2.33%	–
Cc1sc2ncn(CC(=O)N3CCN(c4ccc(F)cc4)CC3)c(=O)c2c1S(=O)(=O)N1CCC(C)CC1	inactive: -15.3%	–
CCOc1ccccc1NC(=O)CN1C(=O)CC(c2ccc(OC)c(OC)c2)Sc2ccccc21 (stereo not given)	inactive: -16.7%	–
CCN1C(=O)c2ccccc2S(=O)c2ccc(C(=O)N3CCN(c4cccc(C)c4)C(C)C3)cc21 (stereo not given)	inactive: -22.1%	–
CN1CCN(c2nc3c(S(=O)(=O)c4ccc(Cl)cc4)nnn3c3ccsc23)CC1	inactive: -27.7%	–
Cc1nn2c(C)c(C(=O)NCCc3ccccc3)cnc2c1-c1ccccc1	inactive: -13.7%	–
CC(C)(C)OC(=O)N1CCC(c2c(C(=O)N3CCN(Cc4ccccc4)CC3)cnn2-c2cccc(Cl)c2)CC1	inactive: -15.7%	–

SMILES	activity, negative = inhibition	Potency
CCCCC1CCC(C(=O)N2CC(=O)Nc3ccc(F)cc3C2c2ccc(F)cc2)CC1 (stereo not given)	inactive: -12%	–
CCc1ccc(NC(=O)c2cnn(-c3c(C)cccc3C)c2C2CCN(C(=O)OC(C)(C)C)CC2)cc1	inactive: -18.2%	–
COc1ccc(NC(=O)CSc2nc3nc(C)c(Cc4ccc(C)cc4)c(C)n3n2)cc1OC	inactive: -8.3%	–
CCCN(Cc1cccs1)C(=O)Nc1cc(Cl)ccc1C	inactive: -11%	–
CC(C)Cc1ccc(S(=O)(=O)N2CCC(c3ccncc3)CC2)cc1	inactive: -12%	–
CCn1cc(S(=O)(=O)c2ccc(Cl)cc2)c(=O)c2cc(F)c(N3CCOCC3)cc21	inactive: -0.934%	–
CC(C)c1ccc2c(c1)-c1ccccc1S(=O)(=O)N2CC(=O)N1CCCCC1	inactive: -10.8%	–
Cc1c(Cl)cccc1-n1ncc(C(=O)NCc2cccs2)c1C1CCN(C(=O)OC(C)(C)C)CC1	inactive: -12.8%	–
Cc1cccc(-c2nc(CSCC(=O)NCCc3ccc(Cl)cc3)c(C)o2)c1	inactive: -6.88%	–
CN(C(=O)c1ccc2c(c1)N(Cc1ccccc1F)C(=O)c1ccccc1S2)C1CCCCC1	inactive: -18.7%	–
CCc1ccc(OCC(=O)N(Cc2ccco2)Cc2ccco2)cc1	inactive: -14.7%	–
Cc1ccc(C)c(CN2CCCN(Cc3cc(C)ccc3C)S2(=O)=O)c1	inactive: -7.69%	–
COc1ccc(C(=O)N2CCc3cc(OC)c(OC)cc3C2COc2ccccc2OC)cc1 (stereo not given)	inactive: -9.57%	–
Cc1ccc(C)c(N2CCN(C(=O)c3cnn(C(C)(C)C)c3C3CCN(C(=O)OC(C)(C)C)CC3)CC2)c1	inactive: -13%	–
CCN(CC)C(=O)c1ccc2c(c1)N(Cc1c(F)cccc1Cl)C(=O)c1ccccc1S2	inactive: -15.8%	–
Cc1cc(C)cc(C(=O)NCCc2sc(-c3ccc(F)cc3)nc2C)c1	inactive: -3.51%	–
CCCCN(CC)CCCNC(=O)c1cn(CC)c2ccc(S(=O)(=O)N3CCc4ccccc4C3)cc2c1=O	inactive: -21.8%	–
CS(=O)(=O)N(Cc1ccccc1)c1ccc(C(=O)Nc2ccc(Cl)cc2)cc1	inactive: 10.2%	–
Cc1cccc(Nc2nnc(-c3ccc(C)c(S(=O)(=O)N4CCN(C)CC4)c3)c3ccccc23)c1	inactive: -25.7%	–
Cc1ccc(CN(Cc2ccco2)C(=O)COc2ccc(C)c(C)c2)cc1	inactive: -13.6%	–
CN(C)c1ccc(Nc2ncnc3sc4c(c23)CCCC4)cc1	inactive: -1.26%	–
Cc1ccc(C)c(CSc2nnc(C)n3c2cc2sccc23)c1	inactive: -16.7%	–
Cc1ccc(C)c(N2CCN(CCCNC(=O)c3cnn(-c4ccc(F)cc4)c3C3CCN(C(=O)OC(C)(C)C)CC3)CC2)c1	inactive: -1.81%	–
OCC1O[C@H]([S-])[C@H](O)[C@@H](O)[C@@H]1O.[Au+] (stereo not given in full)	–	active: 12.6 µM

SMILES	activity, negative = inhibition	Potency
CC(C)NC[C@H](O)c1ccc(O)c(O)c1	inactive: 8.25%	–
CCOC(=O)c1cccc(NC(=O)c2oc3c(c2C)-c2nn(CC)cc2CC3)c1	inactive: 12.5%	–
Cc1c(Cl)cccc1-n1ncc(C(=O)NC2CCCCC2)c1C1CCN(C(=O)OC(C)(C)C)CC1	inactive: -0.422%	–
COc1ccc(OC)c(Nc2sc(C(=O)c3ccccc3)c(N)c2S(=O)(=O)c2ccccc2)c1	inactive: -2.04%	–
CCN(CC)CCNC(=O)c1ccc2c(=O)n3nc(Nc4ccccc4OC)sc3nc2c1	inactive: -25.4%	–
Cc1ccc(CN(Cc2ccco2)C(=O)c2ccc(OCC(C)C)cc2)cc1	inactive: -7.47%	–
Cc1ccc(S(=O)(=O)Cc2ccc(C(=O)N3CCN(c4cccc(Cl)c4)CC3)o2)cc1	inactive: -16.7%	–
CCOC(=O)c1cnc2c(ccc3ccccc32)c1Nc1ccc(N(C)C)cc1	inactive: -12.4%	–
CCn1cc2c(n1)-c1c(oc(C(=O)Nc3ccc(Br)cc3F)c1C)CC2	inactive: -12.3%	–
Cc1ccc(N(CC(=O)N2CCN(c3cc(C)ccc3C)CC2)S(=O)(=O)c2c(C)nn(C)c2C)cc1	inactive: -24.2%	–
CCOc1ccc(CNC(=O)c2oc3c(c2C)-c2nn(Cc4cccc(Cl)c4)cc2CC3)cc1	inactive: 1.55%	–
O=C(c1ccc2c(c1)N(Cc1ccc(Cl)cc1)C(=O)c1ccccc1S2(=O)=O)N1CCCC1	inactive: -6.84%	–
Cc1ccc(N(C)C(=O)c2sc3nc4n(c(=O)c3c2C)CCCC4)cc1C	inactive: -29.1%	–
CCCCN(CC)C(=O)CSc1nc2n[nH]c(C)c2c(=N)n1-c1ccc(CC)cc1	inactive: 9.27%	–
COc1ccc(CNC(=O)Nc2ccc3c(c2)N(C)C(=O)c2ccccc2S3)cc1OC	inactive: -18.8%	–
CC(=O)c1cccc(NC(=O)CC(c2ccc(C)cc2)N2Cc3ccccc3C2=O)c1 (stereo not given)	inactive: -3.19%	–
CCn1cc2c(n1)-c1c(oc(C(=O)Nc3cccc(C)c3C)c1C)CC2	inactive: 27.1%	–
CCc1ccc(N(CC)C(=O)c2sc3nc4n(c(=O)c3c2C)CCCC4)cc1	inactive: -22.2%	–
COc1ccc(Nc2ncc(C(=O)N3CCN(c4ccccc4OC)CC3)c3ccccc23)cc1	inactive: -3.41%	–
Cc1ccc(CSc2cn(CCNC(=O)c3cccs3)c3ccccc23)cc1	inactive: 24%	–
Cc1nc2nc(SCC(=O)NC3CCC(C)CC3)nn2c(C)c1Cc1ccccc1Cl (stereo not given)	inactive: -16.5%	–
CCC(NC(C)C)C(O)c1ccc(O)c(O)c1 (stereo not given)	inactive: 9.38%	–
Cc1cccc(-c2nnc(SCC(=O)N3CCCc4ccccc43)o2)c1	inactive: -23.7%	–
CC(=O)c1ccc(C(=O)N(Cc2cccnc2)c2nc3c(Cl)cccc3s2)cc1	inactive: -9.63%	–

SMILES	activity, negative = inhibition	Potency
O=C(c1cccc(Cl)c1)N(Cc1ccco1)Cc1ccccc1Cl	inactive: -11%	–
O=C(NCCn1cc(SCc2cccc(F)c2)c2ccccc21)c1cccc(C(F)(F)F)c1	inactive: 2.49%	–
Cc1ccc(N(Cc2cccs2)C(=O)c2ccccc2)cc1	inactive: -16.4%	–
O=C(O)c1ccc(Nc2nc(-c3ccccc3)c3cc(Br)ccc3n2)cc1	inactive: -28.7%	–
COc1ccc(-c2nc3ccccc3n2Cc2ccc(C(C)C)cc2)cc1	inactive: -14.1%	–
Cc1ccc(Cl)cc1N1CCN(C(=O)c2cccn2-c2nnc(N3CCCCC3)s2)CC1	inactive: -17.3%	–
COc1ccc(NC(=O)C(c2ccc(C)cc2)N(C)C(=O)Cc2cccs2)cc1 (stereo not given)	inactive: -16%	–
CC(C)c1ccc(S(=O)(=O)c2cnc(SCC(=O)Nc3cccc(C(F)(F)F)c3)nc2N)cc1	inactive: -5.26%	–
Cc1cccc(Cn2c(SCc3ccc(C(=O)N4CCC(C)CC4)cc3)nc3ccncc32)c1	inactive: -29.7%	–
CCOc1ccc(-c2nn(-c3ccccc3)cc2C2NC(=O)NC(C)=C2C(=O)OC(C)C)cc1C (stereo not given)	inactive: -12.4%	–
COc1cccc(CNC(=O)c2oc3ccc4c(c3c2C)C(=O)CC(C)(C)O4)c1OC	inactive: -14%	–
COc1cccc(CNC(=O)c2ccc3c(Cl)c4c(nc3c2)CCCC4)c1	inactive: -15.9%	–
CCC1CCCCN1C(=O)CSc1nc(-c2ccc(OC)cc2)cc(C(F)(F)F)n1 (stereo not given)	inactive: -15.6%	–
CCOc1ccc(NC(=O)CSc2nccn2-c2cccc(C)c2C)cc1	inactive: -11.4%	–
Cc1ccc(Nc2nnc(-c3ccc(C)c(S(=O)(=O)N4CCN(C)CC4)c3)c3ccccc23)c(C)c1	inactive: -19.7%	–
CCc1ccc(NC(=O)CSc2nccn2-c2cccc(C)c2C)cc1	inactive: -8.49%	–
Cc1ccccc1OCc1ccc(-c2nc(C#N)c(N3CCN(C)CC3)o2)o1	inactive: -9.73%	–
O=C(Cc1ccc(F)cc1)N1CCC(c2nc3c(nnn3Cc3ccc(F)cc3)c(=O)[nH]2)CC1	inactive: -14.4%	–
CCn1cc2nc(SCc3ccc(C)cc3)n(CCc3ccccc3)c(=O)c2n1	inactive: -8.74%	–
COc1cc2c(=O)c(S(=O)(=O)c3ccc(C)cc3)cn(Cc3cccc(C)c3)c2cc1OC	inactive: -8.12%	–
COc1ccc(C(=O)/C=C/c2cn(CC(O)CN(CC(C)C)CC(C)C)c3ccccc23)cc1 (stereo not given)	inactive: -10.7%	–
CC(NC(=O)c1nn(C)c2c1CSc1ccccc1-2)c1ccccc1 (stereo not given)	inactive: -3.81%	–
O=C(c1cnc2cc(-c3ccccc3)nn2c1)c1cc([N+](=O)[O-])ccc1O	inactive: -29.5%	–
